Reference: PubChem BioAssay AID1159614 (National Center for Advancing Translational Sciences (NCATS), 2016)
Out of some 45,000 compounds screened, about 65 (0.1%) were called active. Calls follow the shape of the dose curve; as a rule, active = well fitted activation curve with a large enough effect; inconclusive = small, poorly fitted or top-dose-only effect; inactive = no such curve, though single readings can be large or run the other way. The list shows a part of the results.

Target: Galactocerebrosidase (Homo sapiens) (UniProt P54803)
Chain of UniProt P54803 (P54803 whole entry, looked up): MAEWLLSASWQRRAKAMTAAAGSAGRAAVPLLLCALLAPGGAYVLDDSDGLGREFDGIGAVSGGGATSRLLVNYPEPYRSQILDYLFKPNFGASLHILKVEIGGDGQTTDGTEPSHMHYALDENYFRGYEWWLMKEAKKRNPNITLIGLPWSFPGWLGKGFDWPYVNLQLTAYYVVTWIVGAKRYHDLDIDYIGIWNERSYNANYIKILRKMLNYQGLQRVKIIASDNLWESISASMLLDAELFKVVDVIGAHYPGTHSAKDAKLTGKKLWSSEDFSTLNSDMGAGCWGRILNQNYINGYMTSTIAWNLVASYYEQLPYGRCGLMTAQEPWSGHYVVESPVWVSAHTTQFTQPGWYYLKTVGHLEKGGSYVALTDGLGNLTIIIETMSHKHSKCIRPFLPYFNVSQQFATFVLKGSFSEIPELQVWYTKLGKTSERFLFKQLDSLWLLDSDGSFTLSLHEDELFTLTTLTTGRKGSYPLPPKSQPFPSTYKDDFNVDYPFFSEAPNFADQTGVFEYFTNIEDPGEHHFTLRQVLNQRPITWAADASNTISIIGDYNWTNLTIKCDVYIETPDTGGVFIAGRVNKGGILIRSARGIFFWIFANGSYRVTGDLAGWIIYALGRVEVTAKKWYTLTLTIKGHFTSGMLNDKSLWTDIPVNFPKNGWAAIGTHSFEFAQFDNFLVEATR
Test: A Novel Cell-Based Assay to Identify Small Molecules for B -Galactocerebrosidase; also: 0% is about no effect; nearly all actives have a fitted effect of over 65% in size
Settings: 145M-Twi-hGALC-G270D cells (Twitcher mouse brain line with human GALC G270D), HMU-beta-Gal fluorescence, 48 h; series mostly up to 57.5 µM; activation: at the top concentration
In short: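 Fluorogenic HMU-b-Gal hydrolysis (0.1 mM final, pH 5.2 citrate-phosphate with 1 mg/mL sodium taurocholate; carbonate stop buffer) measures mutant GALC activity after compound treatment of live 145M-Twi Twitcher brain cells stably carrying human GALC-G270D, with wild-type GALC line alongside; activation sought.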

activation, inactive:
Cc1cccc(Cn2c(SCc3ccc(C(=O)NCCc4ccccc4)cc3)nc3cccnc32)c1 -11.3%
CC(=O)Nc1ccc(S(=O)(=O)N2CCN(c3ccccc3)CC2)cc1 -33.6%
COc1ccc(C)cc1NC(=O)C1CCCN(S(=O)(=O)c2ccc3c(c2)oc(=O)n3C)C1 (stereo not drawn) -11.1%
CCOC(=O)CC(=O)CSc1nc2ccccc2c(=O)n1CCc1ccccc1 -8.65%
COc1cccc(-c2nnc3n(CCc4ccccc4)c(=O)c4ccccc4n23)c1O -21.6%
Cn1c(=O)c(=O)n(C)c2cc(N3CCCC3)c(NC(=O)c3ccc(C(C)(C)C)cc3)cc21 -14.5%
COc1cccc(CNC(=O)CN(c2ccc(C(C)C)cc2)S(=O)(=O)c2c(C)n[nH]c2C)c1 -10.6%
CC(=O)Nc1cccc(NC(=O)C2(c3cccs3)CCOCC2)c1 -13%
Cc1ccc(SCc2nc(-c3ccc(C(=O)NCc4ccccc4Cl)cc3)oc2C)cc1 -7.58%
CCOC(=O)C1=C(c2ccccc2)Nc2ncnn2C1c1ccc(Cl)cc1 (stereo not drawn) -12.1%
O=C(CCC1N=C2c3ccccc3N=C(SCC(=O)Nc3ccccc3F)N2C1=O)NCc1cccs1 (stereo not drawn) -17%
COc1ccc(S(=O)(=O)N(CCc2ccccc2)CC(=O)Nc2cc(C)ccc2C)cc1 -11.9%
Cc1cccc(NC(=O)CSc2cn(CC(=O)N3CCOCC3)c3ccccc23)c1 -12.1%
CCn1cc(C(=O)NCCOC)c(=O)c2cc(S(=O)(=O)N3CCOCC3)ccc21 -14.2%
CCc1ccc(NC(=O)C2CCN(S(=O)(=O)c3c(C)noc3/C=C/c3cccs3)CC2)cc1 -8.26%
CCOC(=O)c1cccc(NS(=O)(=O)c2c(C)nc3sc(C)cn3c2=O)c1 -5.28%
O=C(c1ccc2c(c1)N(Cc1cccc(Cl)c1)C(=O)c1ccccc1S2(=O)=O)N1CCC(Cc2ccccc2)CC1 0.0209%
CCOc1ccccc1CNC(=O)CN1C(=O)CCn2nc(-c3cn(C)c4ccccc34)cc21 -30.1%
COc1ccc(CNC(=O)c2ccc3c(c2)NC(=O)C(CS(=O)(=O)Cc2ccccc2Cl)N3)cc1 (stereo not drawn) -17%
Cc1nc2ccc(S(=O)(=O)N(CC(=O)Nc3ccc(Cl)cc3)Cc3ccccc3)cc2s1 -11.7%
COc1cc(Cl)c(C)cc1Nc1c2c(nc3ccccc13)CCC2 -16.3%
CCOc1ccc(C(=O)c2oc3ccccc3c2NC(=O)c2cc(-c3ccccc3)on2)cc1 -13.8%
Cc1ccc(NC(=O)C(Cc2ccccc2)n2cccc2)c(C)c1 (stereo not drawn) -20.3%
CSc1cccc(N2C(=O)N(CC(=O)NCc3ccccc3Cl)c3ccccc3S2(=O)=O)c1 0.28%
CCOc1ccccc1N(C)C(=O)Cn1cnc2onc(-c3ccc(F)cc3)c2c1=O -26.5%
COc1ccccc1-n1ncc2c(=O)[nH]c(SCC(=O)Nc3cccc(F)c3)nc21 -10.6%
COc1ccc2c(CNCc3cccs3)c(C(=O)O)n(Cc3ccc(F)cc3Cl)c2c1 -13.2%
CC(C)CCOc1ccc(Oc2nc(N(C)C)nc(N(C)C)n2)nn1 -7.16%
COc1cc(-c2noc(-c3ccc(NC4CCCCC4)c([N+](=O)[O-])c3)n2)cc(OC)c1OC -11.4%
Cc1ccc(NC(=O)CSc2nc(-c3cccs3)cc(C(F)(F)F)n2)cc1C -10.2%
Cc1cc(Nc2ccc(C(C)C)cc2)nc(-n2nc(C)cc2C)n1 -2.5%
COc1ccc(NC(=O)CN(C)S(=O)(=O)c2ccc3c(c2)CCCN3C(C)=O)cc1Cl -20.1%
CCCCCn1c(=N)c(S(=O)(=O)c2ccccc2)cc2c(=O)n3cccc(C)c3nc21 -12.4%
Cc1nnc(SCc2ccccc2Cl)c2cc3occc3n12 -3.63%
Cc1cccc2sc(N(Cc3cccnc3)C(=O)Cc3ccccc3)nc12 -48.3%
CC(C)Oc1cccc(C(=O)Nc2ccc(-c3nc4cc(Cl)cc(Cl)c4o3)cc2)c1 -7.22%
COc1ccc(NC(=O)Cn2c(=O)n(CC3CCCO3)c(=O)c3ccccc32)cc1 (stereo not drawn) -1.33%
CCCCCCNc1ncnc2c1sc1nc(N3CCOCC3)c3c(c12)CCCC3 -21%
CCCCSCCCNC(=O)c1cc(-c2cccnc2)nc2ccc(S(=O)(=O)N3CCC(C)CC3)cc12 6.3%
CCOC(=O)c1c(NC(=O)c2ccc(S(=O)(=O)N(C)C)cc2)sc2c1CCN(C)C2 -6.37%
O=C(Nc1ccc(Oc2ccccc2)cc1)C1CCN(S(=O)(=O)c2ccccc2)CC1 -17.8%
O=C(Nc1cccc(C(=O)N2CCN(c3ccc(F)cc3)CC2)c1)c1nsc2ccccc12 -21.3%
CCCN(C(=O)c1nn(-c2ccc(C)cc2)c(=O)c2c1c1ccccc1n2C)c1ccccc1C -6.4%
Cc1oc2ccc(O)c(CN3CCN(Cc4ccccc4)CC3)c2c1C(=O)Nc1cccc(Cl)c1C -5.74%
CC(=O)c1cc(-c2ccc(F)cc2)n(CCC(=O)NCc2ccc(C)cc2)c1C -9.99%
Cc1c(Cl)cccc1NC(=O)CN1C(=O)CSc2ccc(S(=O)(=O)N3CCCC3)cc21 -3.84%
COc1ccccc1/C=C/c1nc(C#N)c(NC(C)c2ccccc2)o1 (stereo not drawn) -13.4%
CC(=O)c1ccc(N2CCN(C(=O)Cn3ncc4c3-c3ccccc3OC4)CC2)cc1 -39.4%
CCOc1ccc(NC(=O)c2cnn3c(C(F)F)cc(-c4ccc(C)cc4)nc23)cc1 -11.5%
O=c1cc(COc2cccc(C(F)(F)F)c2)nc2sc3c(n12)CCCC3 -6.75%
Cc1ccc(-n2ncc(C(=O)N3CCN(C4CCCCC4)CC3)c2C2CCN(C(=O)OC(C)(C)C)CC2)cc1 -16.2%
CC(C)(C)C(=O)OCOC(=O)C1N2C(=O)CC2S(=O)(=O)C1(C)C (stereo not drawn) -8.46%
CCc1ccc(Sc2cc(C(=O)NCCCN3CCCC(C)C3)c3ccccc3n2)cc1 (stereo not drawn) -7.05%
Cc1ccccc1CCNCc1c(C(=O)O)c(C)n(Cc2c(F)cccc2Cl)c1C -11.5%
Cc1ccc(NC(=O)CN2CCN(C3CCCCC3)C(=O)C2=O)cc1 -8.48%
CC(=O)Nc1ccc2nc(SCc3ccccc3)sc2c1 -18.4%
CCOc1ccccc1CN(CCc1ccc2c(c1)OCO2)Cc1cc(OC)c(OC)cc1OC -19.2%
Clc1ccc(CN2CCc3nc(Nc4ccc5c(c4)OCCO5)ncc3C2)cc1 -18.4%
COc1ccccc1CNc1nc(-c2ccco2)nn1S(=O)(=O)c1ccc(C)cc1 -0.206%
COC(=O)c1cc(Cl)ccc1NC(=O)Cn1c(C)cc(C)c(C#N)c1=O -1.21%
CC(C)NC(=O)c1nn(C)c2c1CS(=O)(=O)c1ccccc1-2 -14.3%
COc1ccc(CNC(=O)C(=O)NCC(c2cccs2)S(=O)(=O)c2ccc(C)cc2)cc1 (stereo not drawn) -6.11%
O=C(c1ccc(F)cc1)N1c2ncnn2C2(CCCCC2)[C@@H]2CCCC[C@@H]21 -8.88%
Cc1ccc(-c2nsc(NC(=O)c3oc4cc(C)c(Cl)cc4c3C)n2)cc1 -14.5%
CCn1c(SCC(=O)Nc2cccc(Cl)c2)nnc1-c1nonc1NC(C)=O -10.9%
CCn1c(=O)c2sccc2n2c(CCCC(=O)N3CCN(c4ccccc4OC)CC3)nnc12 -9.26%
Cc1ccccc1C(=O)NCc1ccc2c(c1)CCN2C(=O)c1ccccc1 -19.6%
CCCCCCOc1ccccc1C(N)=O -14.1%
CCOC(=O)N1CCC(NC(=O)c2cnn(-c3cccc(C)c3)c2C2CCN(C(=O)OC(C)(C)C)CC2)CC1 -11.2%
Cc1ccc(-n2nc(CO)c(C(=O)NCCO)n2)cc1 -1.66%
COc1ccc(CCNC(=O)Cn2nnc(-c3cccc(C(F)(F)F)c3)n2)cc1OC -13.7%
CC(CNC(=O)c1ccc(Cn2c(SCc3ccccc3)nc3cccnc32)cc1)c1ccccc1 (stereo not drawn) -47.4%
Cc1cccc(NS(=O)(=O)c2nnc(NC(=O)C3CCCCC3)s2)c1 -20.8%
CCOC(=O)c1ccc(NC(=O)c2ccc3c(c2)CCN3S(=O)(=O)c2ccc(Cl)cc2)cc1 -9.15%
COc1ccc(CNC(=O)c2cc(Nc3ccc(OC)cc3OC)nc3ccccc23)cc1 -11.7%
COc1cc2[nH]c(=O)n(Cc3ccc(C(=O)N4CCN(c5cccc(C)c5C)CC4)cc3)c(=O)c2cc1OC -10.8%
CCOC(=O)c1ccc(N2C(=O)c3n[nH]c(C)c3C2c2ccc(C(C)C)cc2)cc1 (stereo not drawn) -11.6%
O=C(CSc1n[nH]c(-c2ccccc2Cl)n1)N1CCN(c2ccc(F)cc2)CC1 -13.6%
CC(C)c1nn2c(=O)cc(COC(=O)c3ccc(NC(=O)c4ccccc4Cl)cc3)nc2s1 -6.7%
O=C(Nc1ccc(O)c(-c2nc3ccccc3o2)c1)c1cccs1 -23.5%
COc1ccc2oc(=O)cc(CN3CCN(C(=O)c4ccccc4)CC3)c2c1 -14.8%
CCOc1ccc(NC(=O)c2oc3ccccc3c2NC(=O)Cc2ccc(OC)c(OC)c2)cc1 -1.42%
Cc1ccc(C)c(CN2C(=O)c3ccccc3Sc3ccc(C(=O)NCCCOC(C)C)cc32)c1 -8.88%
CCOc1ccc(CC(=O)NC2CC(=O)N(c3ccc4c(c3)OCCO4)C2)cc1 (stereo not drawn) -23.8%
NC[C@H]1O[C@H](O[C@H]2[C@H](O[C@@H]3O[C@H](CO)[C@@H](O)[C@H]3O)C(O)[C@H](N)C[C@@H]2N)[C@H](N)[C@@H](O)[C@@H]1O (stereo partly drawn) -12.7% [at 11.5 µM]
CCN(c1ccccc1)S(=O)(=O)c1nnc(NC(=O)COc2ccccc2F)s1 -16.9%
CC(=O)Nc1ccccc1-c1nc2ccccc2n(C(C)C(=O)c2ccc(C)c(C)c2)c1=O (stereo not drawn) -4.68%
Cc1cc(C)n(-c2nc3cc(Cl)c(Cl)cc3nc2Nc2c(C)cccc2C)n1 -9.33%
CC(=O)Nc1ccc(S(=O)(=O)Nc2ccc3c(c2)n(C)c(=O)n3C)c(C)c1 -14.8%
COc1ccc(CNC(=O)C(=O)NCC(c2cccnc2)N2CCN(c3ccccc3F)CC2)cc1 (stereo not drawn) -17.7%
Cc1ccc(NC(=O)CN(C)S(=O)(=O)c2cccc3nsnc23)c(C)c1 -16.4%
COc1ccc(-c2[nH]ncc2C(=O)NCc2ccccc2OC)cc1 -10.6%
Cc1ccc(Nc2cc(-c3ccccc3)nc(C)n2)cc1 -7.07%
